The results in this text go back to PubChem BioAssay AID1240 (Sanford-Burnham Center for Chemical Genomics, 2008).

Hit rate of the full screen: of about 50,000 compounds, about 800 (1.6%) showed an effect of 50% or more. The list shows a part of the results.

In this test the target is Bcl-2-like protein 10 (Homo sapiens) (UniProt Q9HD36). Nature of the test: TR3 peptide-Bcl-B binding displacers, biochemical primary FP assay, phenotype converters (AID 1240).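 Further: 0% = Bcl-B with tracer peptide and DMSO and 100% = tracer peptide lacking Bcl-B.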 Conditions: GST-Bcl-B / FITC-TR3 peptide fluorescence polarization; stronger effect = higher value; compound at 3.75 mg/L. A general note: Fluorescence polarisation rises when a labelled molecule tumbles more slowly, as on binding a larger partner.
Chain of UniProt Q9HD36 (Q9HD36 whole entry, looked up): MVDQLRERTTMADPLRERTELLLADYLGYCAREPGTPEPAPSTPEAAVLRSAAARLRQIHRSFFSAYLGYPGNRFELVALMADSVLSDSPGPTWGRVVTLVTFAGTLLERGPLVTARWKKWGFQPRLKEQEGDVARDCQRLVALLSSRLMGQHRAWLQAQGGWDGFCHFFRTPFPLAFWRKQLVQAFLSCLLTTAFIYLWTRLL
Take `Cc1ccc(-c2nc3ccccc3o2)cc1NC(=O)/C=C/c1ccc(Cl)cc1`: the displacement is 29.5%.

On to `O=C(Oc1ccc2c(-c3ccccc3)cc(=O)oc2c1)c1ccccc1Cl`, for which the displacement turned out to be 12.3%.

`CCOc1ccc(S(=O)(=O)N2CCN(c3ccccc3)CC2)c2ccccc12`: the displacement was -4.7%.

As to `Cc1[nH]c(=O)c(C(=O)/C=C/c2cccs2)c2c1CCCC2`, the displacement came to 119%.

In the case of `CCN(CC)CC(O)COc1ccccc1` (stereo unspecified), the displacement is 15.7%.

Turning to `CC(C)c1nnc(NC(=O)COC(=O)/C=C/c2ccc([N+](=O)[O-])cc2)s1`, the displacement was -9.5%.

`Cc1ccc(-c2ccc(C(=O)Nc3ccc(N4CCOCC4)cc3)o2)cc1Cl`: the displacement was 10.8%.

In the case of `CC1(C)Cc2c(sc3nc(SCc4ccccc4)n(CCc4ccccc4)c(=O)c23)CO1`, the displacement is -5.1%.

Regarding `O=C(NCCN1CCOCC1)c1cc(-c2ccc(Br)cc2)nc2ccccc12`, the displacement was -5.8%.

As to `O=C(NNC1=C(C(=O)C(F)(F)F)CCC1)c1ccc(O)cc1`, the displacement is -12%.

On to `NC(=S)N/N=C/c1ccc(-c2cccc(Cl)c2Cl)o1`, for which the displacement is -16.3%.

With `O=C(NCc1ccccc1F)c1ccccc1-c1ccccc1`, the displacement was -1.6%.

For the compound `CCOc1ccc2oc(=O)cc(C)c2c1`, the displacement was 7.5%.

For `O=C1c2ccccc2C(=O)N1CCCc1nc2ccccc2c(=O)n1Cc1ccco1`, the displacement is -6.3%.

On to `CN1CCN(C(=O)c2ccccc2NC(=O)CCCN2C(=O)c3ccccc3C2=O)CC1`, for which the displacement was -8.1%.

For `Clc1ccc(CNC23CN4CN(CN(C4)C2)C3)cc1`, the displacement was -0.4%.

On to `Cc1ccc(/C=C2\C(=O)NC(=O)N(Cc3ccccc3)C2=O)o1`, for which the displacement stood at 18%.

For `CC(C)=NNC(=O)CN(C1=NS(=O)(=O)c2ccccc21)c1ccccc1`, the displacement is -6%.

Take `Cc1cccc(NC(=O)C(C)Oc2cccc(Cl)c2)n1` (stereo unspecified): the displacement was determined as 1%.

On to `Oc1ccc2nc(-c3ccccc3)[nH]c2c1`, for which the displacement was 5.5%.

Turning to `Cc1ccccc1NC(=O)c1cccc(S(=O)(=O)NC2CCCCC2)c1`, the displacement was found to be 3.5%.

In the case of `Cc1ccc(C2c3c(n(C)c(=O)n(C)c3=O)N=C3c4ccccc4C(=O)C32)cc1Cl` (stereo unspecified), the displacement turned out to be 12.7%.

Regarding `CC(=O)c1ccc(NC(=O)/C(=C\c2ccc(Br)cc2)NC(=O)c2ccco2)cc1`, the displacement is -4.7%.

Take `O=C(CCCOc1ccccc1)Nc1ccc(Cl)c(Cl)c1`: the displacement is 5%.

Take `Cn1nnnc1SCC(=O)c1ccc(Br)cc1`: the displacement was found to be 16.2%.

As for `O=C(N/N=C/c1cccs1)c1cc(C23CC4CC(CC(C4)C2)C3)[nH]n1`, the displacement was -11.4%.

Regarding `CCCC1CCc2c(sc(N)c2C#N)C1` (stereo unspecified), the displacement is -8.3%.

As to `COC(=O)c1ccccc1NC(=O)c1cccc([N+](=O)[O-])c1C`, the displacement was -9.7%.

As to `O=C(O)C1C2CCC(C2)C1C(=O)Nc1nc(-c2ccc(Br)cc2)cs1` (stereo unspecified), the displacement was -3.2%.

As for `O=c1[nH]c2ccccc2nc1/C=C(\O)c1cccs1`, the displacement was determined as 98.7%.

With `CN1C(=O)C(=Cc2ccccc2OCc2ccccc2F)C(=O)N(C)C1=O`, the displacement is 11%.

In the case of `CNC(=O)C(=O)Nc1ccc2c(c1)OCO2`, the displacement was determined as 5.2%.

In the case of `Cc1ccc(-c2csc(NC(=O)C3C4C=CC(O4)C3C(=O)O)n2)cc1` (stereo unspecified), the displacement is -3.8%.

Turning to `COc1cc(C)c(CNC23CC4CC(CC(C4)C2)C3)cc1C`, the displacement amounted to 8.1%.

For `O=C(NNC(=O)c1ccco1)c1cccc(I)c1`, the displacement was -6.6%.

`CCC(C)c1c(O)nc(SCC(=O)N2CCOCC2)[nH]c1=O` (stereo unspecified): the displacement amounted to 6.6%.

Take `Cc1ccc(-c2cc(C(=O)NCC3CCCO3)c3ccccc3n2)c(C)c1` (stereo unspecified): the displacement was -7.2%.

For `Cc1ccc(C(=O)N2N=C(c3ccc(Cl)cc3)CC2(O)C(F)(F)F)o1` (stereo unspecified), the displacement is -0.5%.

On to `Cc1ccc(OCC(=O)N=Nc2c(O)[nH]c(=O)[nH]c2=O)cc1`, for which the displacement was found to be 10.1%.

Turning to `c1ccc(Oc2nc(-c3ccncc3)nc3ccccc23)cc1`, the displacement came out at 1.4%.

With `O=C1NC(=S)N/C1=C/c1ccccn1`, the displacement was 13.8%.

Regarding `CCc1c(C)nn2cn[n+](Cc3ccc(Cl)cc3)c2c1[O-]`, the displacement was 1.2%.

Take `CCCOC(=O)c1ccc(NS(=O)(=O)Cc2ccccc2)cc1`: the displacement was 2.8%.

As for `Cc1ccc(NC(=O)Cc2nnc(NC(=O)Nc3ccccc3)s2)cc1`, the displacement is 10%.

Turning to `CC1=NN(C(=O)c2ccc(N/C(C)=C/C(=O)C(F)(F)F)cc2)C(O)(C(F)(F)F)C1` (stereo unspecified), the displacement is -11.9%.

With `COc1cc(OC)cc(C(=O)N2CCN(C(c3ccccc3)c3ccccc3)CC2)c1`, the displacement was 5.7%.

With `CCc1ccc(-n2c(C)cc(/C=C3/SC(=S)NC3=O)c2C)cc1`, the displacement turned out to be 63%.

Turning to `CC(=O)N(C(C)=O)c1nc(-c2ccccc2)c(-c2ccccc2)n1/N=C/c1ccccc1`, the displacement worked out at 10.8%.

`O=C(c1nn2c(c1Br)NC(c1cccs1)CC2C(F)(F)F)N(Cc1ccccc1)Cc1ccccc1` (stereo unspecified): the displacement is 6.8%.

As to `COC(=O)c1c(NC(=O)C2C3CCC(C3)C2C(=O)O)sc2c1CCCCC2` (stereo unspecified), the displacement is -1.2%.

As to `O=C(Nc1ccc(Cl)cc1)Nc1nnc(COc2ccccc2F)s1`, the displacement turned out to be 1.9%.

Take `O=C(Nc1cccc(Br)c1)c1ccc([N+](=O)[O-])cc1`: the displacement amounted to 12.7%.

Take `Cc1cc(Cl)c(OCCN2CCCCC2)c(Cl)c1`: the displacement turned out to be 5.3%.

Turning to `CC1=C(C(=O)OC(C)C)C(c2coc3ccc(C)cc3c2=O)C2=C(CC(C)(C)CC2=O)N1` (stereo unspecified), the displacement was -8.4%.

Turning to `O=C1C2C3C=CC(C3)C2C(=O)N1c1cccc(Oc2cccc(Oc3cccc(N4C(=O)C5C6C=CC(C6)C5C4=O)c3)c2)c1` (stereo unspecified), the displacement was determined as 17.3%.

In the case of `Cc1cccc(C(=O)Nc2cc(-c3nc4ncccc4o3)ccc2C)c1`, the displacement was -3.8%.

`COc1ccc(N2C(=O)c3ccccc3NC2c2ccc(OC)c(CSc3ccccn3)c2)cc1` (stereo unspecified): the displacement turned out to be 10.6%.

Regarding `COc1cc(/C=N/N2C(=O)C3C4C=CC(CC4)C3C2=O)cc(I)c1O` (stereo unspecified), the displacement was 3.3%.

Regarding `COC(=O)c1c(N)sc(C(=O)Nc2ccc(C)cc2C)c1C`, the displacement was 9%.

In the case of `CCCOc1ccc(-c2n[nH]c(=S)n2-c2ccccc2)cc1`, the displacement is -0.9%.

Consider `C=CCc1cccc2cc(C(=O)N3CCN(C/C=C/c4ccccc4)CC3)c(=O)oc12`, for which the displacement is -0.3%.

Consider `CC1(C)CC(=O)C2=C(C1)OC(N)=C(C#N)C2C1CC=CCC1` (stereo unspecified), for which the displacement was determined as 2.5%.

As to `CN(C)CCOC(=O)CN1C(=O)S/C(=C/c2ccc(Br)cc2)C1=O`, the displacement was 6.9%.

As to `C=CCN1C(=O)/C(=C\c2ccc(OCc3ccc(F)cc3)c(OCC)c2)C(=O)NC1=S`, the displacement was -4.1%.

For the compound `O=C(O)c1ccccc1/C=C1/SC(=S)N(c2cccc(Cl)c2)C1=O`, the displacement was -0.2%.

As for `CC(=O)c1cccc(NC(=O)Nc2ccccc2C)c1`, the displacement was -3.8%.

Consider `O=C(CC(=O)c1cc(Cl)ccc1O)c1ccc(F)cc1`, for which the displacement was -4.2%.

In the case of `O=C(N/N=C\c1cc(Br)cc(I)c1O)c1ccc([N+](=O)[O-])cc1`, the displacement turned out to be 48.9%.

For `CS(=O)(=O)N(CC(=O)Nc1cccc2ccccc12)c1cccc(Cl)c1`, the displacement came out at 4%.

Consider `Cc1ccc(N(CC(=O)NC(C)C)S(C)(=O)=O)cc1Cl`, for which the displacement was -9.6%.

On to `Brc1ccc(OCCN2CCCC2)cc1`, for which the displacement is -3.5%.

On to `Cc1cc([N+](=O)[O-])ccc1NC(=O)c1cc2ccccc2o1`, for which the displacement was -1.2%.

On to `COc1cccc(C2C(C(=O)OCCc3ccccc3)=C(C)NC3=C2C(=O)CC(C)(C)C3)c1` (stereo unspecified), for which the displacement was 3.8%.

As for `COC(=O)C1=C(C)NC(=O)NC1c1ccc(O)cc1` (stereo unspecified), the displacement was found to be 9.8%.

With `O=C(NCCOc1ccccc1Cl)C(c1ccccc1)c1ccccc1`, the displacement stood at 9.9%.

For `COc1cccc(C(=O)N2CCN(Cc3ccccc3Cl)CC2)c1`, the displacement was found to be 11%.

For the compound `CCOC(=O)C(Oc1cc2oc(=O)c3c(c2cc1Cl)CCCC3)c1ccccc1` (stereo unspecified), the displacement was -0.6%.

`COc1ccc(/C=C2\SC(=S)N(NC(=O)c3ccccc3Cl)C2=O)cc1`: the displacement is -7.3%.

On to `COc1ccc(CCNC(=O)c2cccc([N+](=O)[O-])c2C)cc1`, for which the displacement worked out at 1.9%.

Turning to `CN1CCN(Cn2c(O)c(N=NC(=O)c3ccncc3)c3cc(Br)ccc32)CC1`, the displacement is -0.4%.

`COc1ccc(C(=O)NC2CCCCC2)cc1OC`: the displacement amounted to 1.9%.

Take `CC(=O)c1c(C)n(-c2ccc(Cl)cc2)c2ccc(O)cc12`: the displacement worked out at 1.9%.

Consider `O=C(Nc1nncs1)c1sc2ccccc2c1Cl`, for which the displacement is -0.6%.

Take `C=CCSc1nc2ccccc2n1CC(=C)Br`: the displacement is -3.1%.

In the case of `Cc1cc(C)cc(NC(=O)COc2ccc(C(C)C)cc2)c1`, the displacement is -4%.

On to `N#C/C(=C/c1ccc(I)o1)c1ccc(F)cc1`, for which the displacement is -13.6%.

On to `CC(=O)Nc1ccc(-c2cn3ccccc3n2)cc1`, for which the displacement was determined as 7.9%.

Take `CCCCOc1cccc(C(=O)NCCNc2ccc([N+](=O)[O-])cc2)c1`: the displacement was -0.2%.

For `Cc1ccc(-c2cc3nc(C)c(Cc4ccccc4)c(=O)n3[nH]2)cc1`, the displacement was determined as 1.6%.

Regarding `Cc1c(Cl)cccc1N1C(=O)CC(Sc2ncn[nH]2)C1=O` (stereo unspecified), the displacement was 13.9%.

As for `Oc1ccc(Nc2ccnc3cc(Cl)ccc23)cc1`, the displacement is -18.8%.

With `O=S(=O)(Cc1ccccc1)N1CCN(c2ccc(F)cc2)CC1`, the displacement was 9.1%.

On to `O=C(Cc1ccc(F)cc1F)Nc1cccc2ccccc12`, for which the displacement worked out at 9.4%.

In the case of `COC(=O)c1ccc(N2C(=O)CC(NCc3ccc(Cl)c(Cl)c3)C2=O)cc1` (stereo unspecified), the displacement was found to be 0.4%.

As to `Cc1ccc2ncnc(NCCc3ccccc3)c2c1`, the displacement was determined as 6.4%.

Consider `CCOC(=O)C1=C(C)N=c2s/c(=C\c3ccccn3)c(=O)n2C1c1ccc(OC)cc1` (stereo unspecified), for which the displacement is -11.7%.

Regarding `COC(=O)C1=C(C)N(Cc2ccco2)C(=O)C1`, the displacement was determined as 2.2%.

As to `COc1ccc(N(CC(=O)Nc2ccc(C(C)C)cc2)S(C)(=O)=O)c(OC)c1`, the displacement turned out to be 1.1%.

As for `Cc1ccc(S(=O)(=O)OCCOS(=O)(=O)c2ccc(C)cc2)cc1`, the displacement is -5.7%.

In the case of `O=C1NC(=O)N(c2ccccc2)C(=O)/C1=C/c1cc2c(cc1Cl)OCO2`, the displacement is -2%.

Regarding `c1ccc2oc(SCCCCSc3nc4ccccc4o3)nc2c1`, the displacement was -10.7%.

In the case of `COc1ccc(/C=C2\C(=O)ON=C2C)cc1`, the displacement came out at 0.5%.

Turning to `Cc1cc(=O)[nH]c(SCC(=O)Nc2ccccc2F)n1`, the displacement is 2.7%.

In the case of `CC(=O)Oc1ccc(/C=c2\sc3nc4ccccc4n3c2=O)cc1`, the displacement is 28%.

For the compound `FC(F)(F)c1cccc(NC(=S)NCCc2ccccc2)c1`, the displacement was 7.2%.

`COc1ccc(C2NC(=O)CCC2[N+](=O)[O-])c(OC)c1OC` (stereo unspecified): the displacement was determined as 4.8%.

For `NC(=O)c1cc(NC(=O)c2ccc([N+](=O)[O-])cc2)ccc1Cl`, the displacement is -3.1%.

Regarding `COc1cc2c(cc1NC(=O)/C=C/c1ccccc1)oc1ccccc12`, the displacement was 0%.

For `COc1ccc(/C=C(\C#N)C(=O)NCC2CCCO2)cc1` (stereo unspecified), the displacement was -4.5%.

`COc1cc(/C=C2/SC(=S)N(c3cccc(Cl)c3)C2=O)cc(OC)c1O`: the displacement was determined as 5.1%.

As to `O=C1/C(=C\c2ccc(-c3ccccc3Cl)o2)SC(=S)N1Cc1ccccc1`, the displacement amounted to 10%.
